# Results published in paper PMC12136788.
# The list shows a part of the results.
# T1: UNK ZnF1-3 (human, UniProt Q9C0B0 31-174)
# T1 sequence: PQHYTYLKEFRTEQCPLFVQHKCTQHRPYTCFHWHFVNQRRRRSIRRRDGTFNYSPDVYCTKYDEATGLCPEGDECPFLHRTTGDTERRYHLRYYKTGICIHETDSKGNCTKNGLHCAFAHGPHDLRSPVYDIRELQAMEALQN
# B1: chr1:163117052:163117053:-_ENSG00000143248_ENST00000313961|hu_hu|FALSE|FALSE (ssRNA)
# RNA: GGGAGUUCUACAGUCCGACGAUCAACAUCCCCUGGGAUUUUUCCCAUGUGGGUAUCACUGAGCAAAGCUGCUGUGGGAAGAUAUGUAGAUUAAUGGGAAAUGCAGGGUUAUUAUGGAGGAAAUAACUCACAGGAUGAUUUCAUCAACAGAGGAUUGAGCAUCA
# B2: 52896138_52896258_2370_3pUTR_ENSG00000196628_ENST00000354452|human|control|control (ssRNA)
# RNA: GGGAGUUCUACAGUCCGACGAUCGGUCUGGGGCUUGUCACUCUUGAGGUGGAGCUGCACCAUGCGGCCGAGCUCUUUGAAAGCCUCGUUGAUGUCACGGACCCGCAGACGCUCUCGGGCAUUGUUGGCCAUCCUCCGCUCCUUCAACAGAGGAUUGAGCAUCA
# B3: chr11:100882373:100882374:+_ENSMUSG00000019302_ENSMUST00000044721|mus_mus|mus_mus_mus_hu_True|68_108 (ssRNA)
# RNA: GGGAGUUCUACAGUCCGACGAUCUUCCUGGUUAGUGUUGAUUUCCUUCAGUUCAUUUUCAAUCUUCUCGAAAUUGGCCUCUAAGUCAAUCAUGUCCCGGGGGAAGGGAACCUCUGGGUUUUCACCGGUGUCCAUAAUCGGAAUCAACAGAGGAUUGAGCAUCA
# B4: chr16:14738297:14738298:+_ENSG00000103429_ENST00000261658|hu_hu|motif|central (ssRNA)
# RNA: GGGAGUUCUACAGUCCGACGAUCGUUCAAGGUGGUGGGGUUAACCAGGAUGUCGUAGCAGCAGUGGCAAGAAAAUUCACGGACAGAAAUCUGAGGGCCGGUGCUUUUGAGAGGUUCAUCUCUCUCAAGGUCCAUUGUGUUCACCAACAGAGGAUUGAGCAUCA
# B5: 33186989_33187109_4414_3pUTR_ENSG00000170275_ENST00000320954|human|control|control (ssRNA)
# RNA: GGGAGUUCUACAGUCCGACGAUCGCACACUAUUUACAGACUCAGGAAUCCCGGAGCAGGGCGUCCACUCGCUGGGUCCCCCACUACUUUCUAGUCCUGUCUCAUCACCCUCUUCCCCACUGAGUUCAAAAGGAAGUUUCUCUGCAACAGAGGAUUGAGCAUCA
# B6: chr7:135612270:135612271:-_ENSG00000105887_ENST00000393085|hu_mus|hu_hu_hu_mus_False|48_78 (ssRNA)
# RNA: GGGAGUUCUACAGUCCGACGAUCGUUUUUUUCUGAGAUGUUAAAUAGUACUUCAGUAACAAAACUUACUUAACCUUUUAUUAAUGCAUGUAGUACCAAAAGCAGACAUUUUAGCUUCAUUUAUUCAAAAAUAUUAACAUUAAGCAACAGAGGAUUGAGCAUCA
# B7: chr4:184596322:184596323:+_ENSG00000168538_ENST00000334690|hu_hu|motif|central (ssRNA)
# RNA: GGGAGUUCUACAGUCCGACGAUCCGCAUUUUGUGUAUCUUGUUUCAACUCACUGAAGAAAGCUAUUUUGAACUGAUGCCGGACAAAUAAAAGCUGGUGUGUUGUUUUAUUCAAAAAUUCUUUAUGAGAUUUCACUCUUCUGAUCAACAGAGGAUUGAGCAUCA
# B8: chr11:43534790:43534791:+_ENSMUSG00000044950_ENSMUST00000129229|mus_mus|motif|central (ssRNA)
# RNA: GGGAGUUCUACAGUCCGACGAUCUCUGAUUUUCUCAUGUGUUCUCCAUUCAUUAAACAAGAAAAAUUAAGGGGUUUCAUACGGUGUAUUUAGCAAAGACAAGGAAAUCUGAAAUCUCUGUUAAGAAUUCAUGUUCCAUGCACCCAACAGAGGAUUGAGCAUCA
# B9: chr22:28376736:28376737:-_ENSG00000100154_ENST00000397906|hu_hu|motif|central (ssRNA)
# RNA: GGGAGUUCUACAGUCCGACGAUCAUUUUAGAAUUACCUAAAAGAUACUUACUUAUCUAAAUUCUCCAACUAAACUCAGUACGGAUACGACUUUCAGCAUUUCCUUUCUUUAUAAAAUAAAUUAAUGGUUACCCCUAACUAGAUCAACAGAGGAUUGAGCAUCA
# B10: chr14:89327608:89327609:+_ENSG00000165533_ENST00000346301|hu_mus|FALSE|FALSE (ssRNA)
# RNA: GGGAGUUCUACAGUCCGACGAUCUUCCUCAUAGAUCCUGGCAAUUCCACAAAGCAGGGUCACCUCUCCUGGAAACUUAUCUAAGCCUUGUUUAAAUAGAUUUAAAGCAGUCACAGGUUGAUCCAAUAUGAUAUAAACUUUUGCCAACAGAGGAUUGAGCAUCA
# B11: 39991170_39991290_1122_CDS_ENSG00000065883_ENST00000340829|human|control|control (ssRNA)
# RNA: GGGAGUUCUACAGUCCGACGAUCGGGGCUGCUGCCACCUCCUGCCGGGCUGGGGGACUUGCGGCUCCUCAGGCUCUGAGAGGCCCUGUGGGACACCGGGCUGUCGUCCCGGCCUCCCAGUGGGCUGAGGGACCGCCGCCGCCUCAACAGAGGAUUGAGCAUCA
# B12: chr17:56739783:56739784:+_ENSMUSG00000071054_ENSMUST00000095224|mus_hu|motif|central (ssRNA)
# RNA: GGGAGUUCUACAGUCCGACGAUCAUAUUUGCUGAAAAGAUUCUUCAAAUCUGUAGCUCUGGUUGUAGAAGAGAGUCCACGGACCCAGAAAUUUCUACCACAACUGCUGCGACCCUUUUCCUCUUUGGAAAGCCUUUUUGUAUCCAACAGAGGAUUGAGCAUCA
# B13: 436118_440354_2135_3pUTR_ENSG00000141252_ENST00000437048|human|control|control (ssRNA)
# RNA: GGGAGUUCUACAGUCCGACGAUCAAGAGGUGGGUGAUGAAUUUGGGAAUGAAGGAGUUUGCAAAUUUAACGCAGAACUGAGUGAAGUACUUGCGUGUGGAAGCCAGGUUGUCACGGAUGAUGGGGACGUUCUGCUUGAUGUGCCAACAGAGGAUUGAGCAUCA
# B14: chr8:71331417:71331418:+_ENSMUSG00000031864_ENSMUST00000110241|mus_hu|motif|central (ssRNA)
# RNA: GGGAGUUCUACAGUCCGACGAUCGACCAGCAUGGUGGAAUACACCACUUGGUUUUUAUAUUUUGCAUGUGCUUCACGGUCAAAGUUGUUCAUGUAUCUGCAGAGAUCCUUCAUUCUAUGCAAAAUAUCUCCAUAGCUUCGUCUCAACAGAGGAUUGAGCAUCA
# B15: chr12:48362563:48362564:+_ENSG00000134291_ENST00000256686|hu_hu|hu_hu_hu_mus_False|28_38 (ssRNA)
# RNA: GGGAGUUCUACAGUCCGACGAUCUCCGUCAAGCCCUUCGAUAGACCCUUGCGGGGGAAACUGUAAUCACUUUGUAUGGGGAAGGAAAAGAAACGCCAACACACUUUUUUCUUUCUUGGGUGGGGUGAGGCGGGAGGGGGAGGUCAACAGAGGAUUGAGCAUCA
# B16: chr17:64801638:64801639:+_ENSG00000154229_ENST00000413366|hu_mus|hu_hu_hu_mus_False|18_28 (ssRNA)
# RNA: GGGAGUUCUACAGUCCGACGAUCUAUAUAUAUAUAUACAUAUGUACACAUAUAUAGUAAAACCCUAGUUAAACGUGUAAAGUAGCCAUUCAUUUUUAAAAUUACAUCUACAUUUAAAAAGUAAUCUAUCUGAUAGAGUGCCAGCAACAGAGGAUUGAGCAUCA
# B17: chr15:75216061:75216062:-_ENSG00000178741_ENST00000564811|perfect_dup|FALSE|FALSE (ssRNA)
# RNA: GGGAGUUCUACAGUCCGACGAUCUUUGUCAAGGCCCAGCUCCUCUGGAGUGGAGAUUCCCAAUUCAUUUAAAGUUGGUCUAAGUUCCUGGAUGACAUAGGGAUAGAUUUCCUUAUGAGGUCCUGCUUUGUCCUUAACAACCUCCAACAGAGGAUUGAGCAUCA
# B18: chr1:23883277:23883278:-_ENSMUSG00000026155_ENSMUST00000027339|mus_hu|motif|central (ssRNA)
# RNA: GGGAGUUCUACAGUCCGACGAUCCUCCUUUUCUCUCUUUUUCUCUUCCUUUUUUUUUUCCUUUUCUUUAUUUGUAAUAGCGGUGGCAUUUUUAUCGUAGUAUUUCUUCUUUUCAUAUUUAUCUCUGAUGAAAAAUUCCACUGCCAACAGAGGAUUGAGCAUCA
# B19: chr22:18299541:18299542:-_ENSG00000243156_ENST00000441493|hu_mus|FALSE|FALSE (ssRNA)
# RNA: GGGAGUUCUACAGUCCGACGAUCAAGGAUGUCAUCACUGGACAGGUCUGAGUCCUCUGAGAAACUCAGCUGGCGGCGGAGCUGCAGCUCUGCUCUCACCAUUGGAGACGCCCUGCGCUGGCCGGAGUCCACCGUGGCGCCACUCAACAGAGGAUUGAGCAUCA
# B20: chr12:114378518:114378519:+_ENSMUSG00000006356_ENSMUST00000084882|mus_mus|motif|central (ssRNA)
# RNA: GGGAGUUCUACAGUCCGACGAUCCCCGGAGUGAGGUGGCGUCCACAGGGAUCGCCCGAGGAUUCCAUGGCCACAUAGUGAUCUCGGGCUGUAGAACGGACUUGGGAUCCCCAGCUUUAGGUCUCGAGGUCCGGGCCUGCUCGUCAACAGAGGAUUGAGCAUCA
# B21: chr4:95690885:95690886:+_ENSMUSG00000028572_ENSMUST00000156910|mus_mus|mus_mus_mus_hu_False|8_28 (ssRNA)
# RNA: GGGAGUUCUACAGUCCGACGAUCUUUAGAAAAUGUUAAAUACCAUGCUAAAAUAUUUUCAAAGGCUUAUUUUAUUUUACCAGAAGUCACAGGCAAGCAGACACUACAAACAUACAAGAAAAUGAAACAACAGUGUAUAACUGUCAACAGAGGAUUGAGCAUCA
# B22: chr16:57153313:57153314:+_ENSMUSG00000022752_ENSMUST00000166897|mus_hu|FALSE|FALSE (ssRNA)
# RNA: GGGAGUUCUACAGUCCGACGAUCUUUCAAAAAAUCAACUGAAAGCGGUUAACUGAAUAUAAAUCUAUUUUACAGCAUUUACUACGUUAAUUUAAAAAUCAACAUGCUGUAAAAUACUUACAUUAUUCACACAUAUAUAGACGGCAACAGAGGAUUGAGCAUCA
# Molecular target: T1, UNK ZnF1-3
# Assay: nsRBNS (natural sequence RNA bind-n-seq); RBNS binding buffer (assumed for nsRBNS): 25 mM Tris pH 7.5, 150 mM KCl, 3 mM MgCl2, 0.01% Triton X-100, 500 ug/ml BSA, 20 U/ml SUPERase-In, 4 C; UNK is unkempt and MSI1 is Musashi-1; names of the RNAs are library labels; protein concentration not given here; high values mean tight binding
row,Binder,binding signal [enrichment R]
1,B1,1.52
2,B2,0.552
3,B3,0.543
4,B4,1.04
5,B5,1.31
6,B6,1.34
7,B7,1.09
8,B8,0.978
9,B9,1.07
10,B10,1.29
11,B11,0.488
12,B12,0.655
13,B13,1.58
14,B14,0.681
15,B15,1.73
16,B16,1.14
17,B17,0.551
18,B18,0.223
19,B19,0.853
20,B20,0.5
21,B21,1.74
22,B22,0.603
